{
  "source": "PubChem BioAssay AID463173",
  "about": "(ICCB-Longwood Screening Facility, Harvard Medical School, 2010)",
  "note": "About 4,300 (8.3%) of roughly 52,000 compounds were called active. No stated cut-off is given here; in the data, active means survival mostly below about 52% (no sharp cut-off); inactive means mostly above about 56%. Some of the results follow.",
  "data": [
    {"system": "DeltatarO mutant", "assay": "growth inhibition of S. aureus wild type versus tarO mutant, primary screen, teichoic acid synthesis inhibitors, RN4220, OD600 (AID 463173)", "details": "OD600, 18 h, active compounds read low, screened at 18.75 µg/mL (by protocol)", "values": [
      {"molecule": "CCOc1ccc(CNC(=O)C2CCN(c3nnc(-n4cccc4CNc4ccc(C)cc4)s3)CC2)cc1OC", "survival": "inactive: 82%"},
      {"molecule": "CC(=O)Nc1ccc(S(=O)(=O)N2CCC(NC(C)=O)(c3cccc(F)c3)CC2)cc1", "survival": "inactive: 68%"},
      {"molecule": "CCOC(=O)c1ccccc1NC(=O)C(=O)Nc1ccc2nc3n(c(=O)c2c1)CCCCC3", "survival": "inactive: 93%"},
      {"molecule": "CCc1cccc(-n2c(C)nc3c(cnn3-c3ccc(Cl)cc3)c2=O)c1", "survival": "active: -1%"},
      {"molecule": "CC(=O)N1CCOc2cc(S(=O)(=O)Nc3cccc(C(F)(F)F)c3)c(Cl)cc21", "survival": "inactive: 85%"},
      {"molecule": "Cc1cn2c(=O)cc(COc3cccc(NC(=O)c4ccccc4C)c3)nc2s1", "survival": "inactive: 83%"},
      {"molecule": "COc1ccc(NC(=O)C2CCN(S(=O)(=O)c3ccc4[nH]c(=O)ccc4c3)CC2)c(OC)c1", "survival": "inactive: 94%"},
      {"molecule": "CCOC(=O)c1[nH]c(C)c(CCC(=O)NCc2ccccc2)c1C", "survival": "inactive: 92%"},
      {"molecule": "COc1ccc(OC)c(NC(=O)Cc2coc3ccc(C(C)C)cc23)c1", "survival": "inactive: 73%"},
      {"molecule": "Cc1cc(C)cc(NC(=O)N2CCC(N3CCCCC3)CC2)c1", "survival": "inactive: 93%"},
      {"molecule": "N#CC(C#N)=C1CCCCCN1", "survival": "inactive: 73%"},
      {"molecule": "N#Cc1c(-c2cccs2)cc(-c2cccs2)nc1SCc1cccnc1", "survival": "inactive: 65%"},
      {"molecule": "COC(=O)C(C)Sc1nc2c([nH]c3ccccc32)c(=O)n1-c1ccc(OC)cc1", "note": "(centres undefined)", "survival": "inactive: 64%"},
      {"molecule": "Cc1cc(C)c2c(=O)cc(C(=O)Nc3ccc(S(=O)(=O)Nc4nc(C)cc(C)n4)cc3)oc2c1", "survival": "inactive: 103%"},
      {"molecule": "Cc1ccc(NC(=O)NCc2cccn2Cc2ccccc2)cc1F", "survival": "inactive: 60%"},
      {"molecule": "Cc1ccc(-c2cn3c(n2)sc2cc(C(=O)N4CCCCC4)ccc23)cc1", "survival": "inactive: 79%"},
      {"molecule": "O=C(Nc1ccc2nc(SCC(=O)N3CCCC3)sc2c1)c1ccc(F)cc1", "survival": "inactive: 85%"},
      {"molecule": "Cc1ccc(-n2ncc(C(=O)Nc3ccc(C)c(F)c3)c2C2CCN(C(=O)OC(C)(C)C)CC2)cc1C", "survival": "inactive: 122%"},
      {"molecule": "Cc1nc2sc(C(=O)NCc3ccc(Cl)cc3)c(NC(=O)c3ccccc3)c2c(C)c1C", "survival": "inactive: 54%"},
      {"molecule": "Cc1ccc(CNC(=O)CCCCn2c(=O)c3ccccc3n(Cc3ccc(Cl)cc3)c2=O)cc1", "survival": "inactive: 105%"},
      {"molecule": "O=C(Cn1cc(/C=N/NC(=S)Nc2ccccc2)c2ccccc21)NCc1ccco1", "survival": "inactive: 82%"},
      {"molecule": "CCC(C(=O)OCc1cc(=O)n2nc(CCOC)sc2n1)c1ccccc1", "note": "(centres undefined)", "survival": "inactive: 124%"},
      {"molecule": "Cc1ccccc1NC(=O)c1nc(-c2ccncc2)no1", "survival": "inactive: 46%"},
      {"molecule": "COc1cccc(N2CCN(c3nc4ccc(C(=O)c5ccccc5)cc4n4c(C)nnc34)CC2)c1", "survival": "inactive: 102%"}
    ]}
  ]
}
